Laboratory results reported in PubChem BioAssay AID488969 (Vanderbilt High Throughput Screening Facility, 2010).
Where “and” joins values, the source holds several entries; their conditions need not be identical. Equal entries are not always repeated. Over roughly 110,000 compounds, “z-score” has its median near -0.1; the highest 2% begin near 2. This is one part of the list.

These compounds were tested against Metabotropic glutamate receptor 8 (Rattus norvegicus) (UniProt P70579) (assay: mGluR8 Gi/Go-coupled signaling modulation – cell-based, rat, thallium flux, HTS, primary screen (AID 488969)). Settings: HEK293 rat mGluR8, GIRK (G protein-gated inwardly rectifying potassium channel) thallium flux, FluoZin2; at 10 µM; stronger effect = higher value; submaximal glutamate (EC20) added with thallium.
Sequence of UniProt P70579 (P70579 whole entry, looked up): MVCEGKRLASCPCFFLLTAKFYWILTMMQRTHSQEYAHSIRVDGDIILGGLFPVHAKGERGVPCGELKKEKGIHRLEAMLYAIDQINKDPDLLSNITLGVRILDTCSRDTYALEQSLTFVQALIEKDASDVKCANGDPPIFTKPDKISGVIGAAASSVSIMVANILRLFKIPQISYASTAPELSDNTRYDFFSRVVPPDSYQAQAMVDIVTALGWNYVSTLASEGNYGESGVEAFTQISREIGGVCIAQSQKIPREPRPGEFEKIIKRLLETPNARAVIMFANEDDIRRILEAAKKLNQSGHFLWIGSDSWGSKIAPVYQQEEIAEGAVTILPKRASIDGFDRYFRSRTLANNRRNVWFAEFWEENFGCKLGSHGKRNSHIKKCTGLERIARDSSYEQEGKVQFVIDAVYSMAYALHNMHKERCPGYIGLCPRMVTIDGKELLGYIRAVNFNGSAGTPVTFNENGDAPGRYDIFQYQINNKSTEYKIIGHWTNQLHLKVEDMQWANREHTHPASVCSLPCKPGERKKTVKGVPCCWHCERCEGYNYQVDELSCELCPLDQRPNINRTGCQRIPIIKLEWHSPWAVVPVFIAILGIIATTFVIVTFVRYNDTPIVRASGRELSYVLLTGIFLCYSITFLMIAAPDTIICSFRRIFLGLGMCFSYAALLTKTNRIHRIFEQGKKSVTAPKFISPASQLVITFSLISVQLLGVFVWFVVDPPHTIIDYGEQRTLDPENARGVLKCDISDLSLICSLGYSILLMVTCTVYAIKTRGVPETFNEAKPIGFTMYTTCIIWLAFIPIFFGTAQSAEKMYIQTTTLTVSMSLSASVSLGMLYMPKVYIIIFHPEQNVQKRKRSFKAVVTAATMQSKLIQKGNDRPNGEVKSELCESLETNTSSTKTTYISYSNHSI
In the case of `COC(=O)C1=C(C(=O)OC)SC(=C2C(=S)C(C)(C)N(C(=O)C3CC3)c3ccccc32)S1`, the z-score is reported as 0.125.
`CCOc1cnn(Cc2ccccc2)c(=O)c1SCc1ccccc1` was tested, and the z-score was -0.596.
Work on `CCCOc1ccc(-c2nc(OC)c3ccccc3n2)cc1` yielded a z-score of -0.998.
In the case of `COCCCn1cnc2c(c1=O)c1nc3ccccc3nc1n2-c1ccccc1`, the z-score is reported as -0.0291.
In the case of `O=C(/C=C/c1cccc([N+](=O)[O-])c1)Nn1c(-c2ccccc2F)nc2ccccc2c1=O`, the z-score is reported as 0.0632.
`O=C(Nc1ccc(Oc2ccccc2)cc1)c1cnc2n(c1=O)CCS2` was tested, and the z-score was -0.622.
With `CCN(CC)C(=O)CSc1nnc(CCNC(=O)OC(C)(C)C)o1` the z-score was 0.491.
For `O=C(CN1CCN(c2ncccn2)CC1)N1CCCc2c1c(=O)oc1ccc(O)cc21`, the z-score was 0.288.
`CCOC(=O)N1CCN(C(=O)c2ccc3c(c2)NC(=O)C(N2CCOCC2)S3)CC1` (configuration not stated) showed a z-score of 0.466.
`Cn1cc(CNC(=O)COc2ccc(Cl)cc2Cl)cn1` gave a z-score of 0.182.
Work on `Clc1nnc(N/N=C/c2ccccc2)c2ccccc12` yielded a z-score of -0.61.
`Cc1ccc(-c2csc(NC(=O)/C=C/c3cccs3)n2)cc1C` showed a z-score of -2.16.
Compound `O=C1NC(Cc2c[nH]c3ccccc23)C(=O)N1CCOc1ccc(F)cc1` (configuration not stated) has a z-score of -0.0718.
For `COc1ccccc1C(=O)Nc1ccccc1C(=O)N1CCCC1`, the z-score was 0.00209.
In the case of `Clc1ccc(COc2ccccn2)cc1Cl`, the z-score is reported as 0.185.
For `CCOC(=O)c1[nH]c(C)c(C(=O)OCCOc2cccc(C)c2)c1C`, the z-score was -0.07.
With `COc1cccc2c(=O)n(CC(=O)N3CCCCC3)ccc12` the z-score was -0.0457.
With `CCC(CC)C(=O)NCc1ccc2c(c1)cc(C)n2C` the z-score was -0.18.
With `Cc1nn(-c2ccccc2)c(Cl)c1/C=C1\N=C(c2ccccc2)OC1=O` the z-score was -0.615.
`COc1ccc(C(=O)Nc2ccc(/C(C)=N/NC(=O)c3ccccc3O)cc2)cc1OC` showed a z-score of -0.529.
Work on `CC(C)Sc1nc2c(cnn2-c2ccc(F)cc2)c(=O)[nH]1` yielded a z-score of -0.151.
With `COC(=O)COc1cccc(NS(=O)(=O)c2ccc(NC(C)=O)cc2)c1` the z-score was -0.377.
For `COc1ccc(NC(=O)Cn2nc3n(c2=S)CCC3)cc1`, the z-score was 0.157.
`C=CCOC(=O)/C(=C/c1ccco1)NC(=O)/C=C/c1ccccc1` gave a z-score of -0.338.
`Cc1nnc(NC(=O)C2c3ccccc3Oc3ccccc32)s1` showed a z-score of -1.17.
For `CC(C)CC(=O)N1CCC(O)(CS(=O)(=O)Cc2ccccc2)CC1`, the z-score was 0.0421.
`CCOC(=O)c1ccc(Nc2ncnc3c2cnn3C)cc1` gave a z-score of 0.0472.
Work on `CC(=O)c1ccc(OC(=O)C(CCS(C)(=O)=O)N2C(=O)c3ccccc3C2=O)cc1` (configuration not stated) yielded a z-score of -0.239.
`Cn1c(-c2cccc(Br)c2)cnc1NCc1cccnc1` was tested, and the z-score was -0.125.
`COC(=O)Cc1[nH]nc2c1C(C1C=CCCC1)C(C#N)=C(N)O2` (configuration not stated) was tested, and the z-score was -1.
For `CCOC(=O)C1=C(C)NC(=O)C1CC(=O)Nc1ccccc1` (configuration not stated), the z-score was 0.0821.
`O=C(NC1CC2CCC(C1)N2Cc1ccco1)c1ccccc1` (configuration not stated) gave a z-score of 0.21.
For `Cc1ccc(N(C=NC#N)CC(=O)N2CCN(c3ccccc3)CC2)cc1`, the z-score was -0.535.
Work on `OCc1nc2ccccc2n1C/C=C/c1ccccc1` yielded a z-score of 0.00864.
With `O=C(c1ccc(-c2ccc([N+](=O)[O-])cc2)o1)N1CCCCC1` the z-score was -0.859.
With `CC1(C)Cc2c(c(-c3ccccc3)[nH]c(=O)c2C#N)CS1` the z-score was -0.694.
With `CCC1CCCCN1C(=S)Nc1ccc(SC(F)F)cc1` (configuration not stated) the z-score was 0.737.
Work on `CCc1c(C#N)c(SCCC(=O)Nc2ccc(F)cc2)nc2c1C(=O)CC(C)(C)C2` yielded a z-score of -1.
Compound `CCOC(=O)c1cccc(NC(=O)CCS(=O)(=O)c2ccc(Br)s2)c1` has a z-score of 0.288.
Work on `COc1cc(CNn2nnnc2N)ccc1OCC(=O)NC(C)(C)C` yielded a z-score of -0.0504.
In the case of `C=CCC(CC=C)(NC(=O)c1ccccc1)c1ccccc1`, the z-score is reported as -0.136.
Compound `N#C/C(=C/c1ccc(N2CCCCC2)o1)C(=O)Nc1ccc(Cl)cc1` has a z-score of 0.159.
For `Cc1cnnn1-c1ccc(C(=O)CCl)cc1`, the z-score was -0.179.
With `Cn1c(O)c(C(C#N)=C2N=c3ccccc3=N2)c2ccccc21` the z-score was -0.0436.
In the case of `FC(F)(F)c1cc(Oc2ccccc2)nc(-c2ccccn2)n1`, the z-score is reported as -0.15.
`O=C(CNc1ccc2c(c1)OCO2)N/N=C\c1cn(Cc2ccc(F)cc2)c2ccccc12` was tested, and the z-score was -0.225.
Work on `CC(C)OC(=O)CSc1nnc(-c2ccc(C(C)(C)C)cc2)n1N` yielded a z-score of 0.0591.
Work on `CCNc1nc(C)nc2c1oc1ccccc12` yielded a z-score of -1.25.
With `CS/C(=N\S(=O)(=O)c1cccs1)NC(=O)CSc1nc2ccccc2s1` the z-score was -1.16.
`CCc1ccc(N=CC23c4ccccc4C(c4ccccc42)C2C(=O)N(c4ccc(OC)cc4)C(=O)C23)cc1` (configuration not stated) showed a z-score of 0.16.
In the case of `COc1ccc2c(c1)C1NC(=S)NC(C)(O2)C1C(=O)Nc1ccccc1C` (configuration not stated), the z-score is reported as 0.0257.
`COc1ccc(CCc2nc(C)ccc2O)cc1` was tested, and the z-score was -0.12 and -0.077.
For `Cc1ccc(N2CC(C(=O)N/N=C/c3cccc([N+](=O)[O-])c3)CC2=O)cc1` (configuration not stated), the z-score was -0.282.
`CCOC(=O)/C(C#N)=C/c1cc(C)n(-c2ccccc2)c1C` was tested, and the z-score was 0.812.
With `CCCc1cc(=O)[nH]c(SCC(=O)NCCCC(=O)OCC)n1` the z-score was -0.306.
Compound `O=C(Cn1cccc1)N1CCN(C(c2ccccc2)c2ccccc2)CC1` has a z-score of -0.556.
Work on `Cc1cc(=O)[nH]c(SCc2nc3ccccc3n2Cc2ccccc2)n1` yielded a z-score of -0.21.
In the case of `CCCCn1c(=O)nc2n(-c3ccccc3)c3ccccc3cc-2c1=O`, the z-score is reported as 1.87.
For `O=C(CC1CCCCC1)OCn1nnc2ccccc2c1=O`, the z-score was -0.459.
In the case of `Cc1nc(SCC(=O)N2CCOCC2)c2ccsc2n1`, the z-score is reported as 0.0134.
Work on `O=C(CCSCc1cccc(Cl)c1)NCCC1=CCCCC1` yielded a z-score of -0.242.
`C=CCOc1ccc(/C=N/NC(=O)C(C)Sc2ccccn2)cc1OC` (configuration not stated) was tested, and the z-score was -0.549.
Compound `N#CC1(C#N)C(c2ccccc2)OC23CCCCC2C1(C#N)C(=N)O3` (configuration not stated) has a z-score of -0.415.
With `NC(=S)NNc1cc(Cl)cc(Cl)c1` the z-score was -0.273.
Work on `CCOC(=O)c1ccc(N/C=C2/CCCC(C)C2=O)cc1` (configuration not stated) yielded a z-score of 0.315.
`Cc1ccc[n+](C(C)C(=O)c2ccc(-c3ccccc3)cc2)c1` (configuration not stated) showed a z-score of -0.156.
Compound `O=S(=O)(c1ccccc1)N1N=C(c2cccs2)CC1c1ccc(Br)cc1` (configuration not stated) has a z-score of -0.39.
Work on `Oc1ccc(-c2nccc(-c3cccs3)n2)cc1` yielded a z-score of -0.133.
With `C/C(=N/NC(=O)c1ccc2c(c1)OCO2)c1ccc(NC(=O)C(F)(F)F)cc1` the z-score was -0.151.
`CC(OC(=O)CNC(=O)C12CC3CC(CC(C3)C1)C2)C(=O)Nc1ccc(N2CCOCC2)cc1` (configuration not stated) was tested, and the z-score was -0.563.
`O=C(Nc1ccccc1)C1=C(O)CC(c2ccoc2)CC1=Nc1ccccc1` (configuration not stated) gave a z-score of -0.135.
Work on `Cn1nnnc1SCC(=O)Nc1ccccc1C(=O)NC1CC1` yielded a z-score of 0.311.
In the case of `CCCCn1c(CNC(=O)c2cccs2)nc2ccccc21`, the z-score is reported as -0.664.
For `COC(=O)CN(c1ccccc1)S(=O)(=O)c1ccccc1`, the z-score was -0.0839.
With `CC1CN(C(=O)c2c(Br)cnn2C)CC(C)O1` (configuration not stated) the z-score was -0.107.
With `COc1ccc(S(=O)(=O)NC2CC(C)(C)NC(C)(C)C2)c(C)c1C` the z-score was 0.179.
Compound `COc1ccc(C(=O)CSc2nnc(-c3ccco3)n2C)cc1` has a z-score of -0.265.
`COc1cc(-c2nc(C(F)(F)F)c(OC)o2)cc(OC)c1OC` gave a z-score of -0.583.
`COc1ccc(-c2c3c(=O)n(C)c(=O)n(C)c3c3nnc4ccccc4n23)cc1` was tested, and the z-score was -0.474.
`CC(C)Oc1ccccc1-c1nc(SCC(=O)O)n[nH]1` was tested, and the z-score was 0.179.
With `C(=C\c1nc2ccccc2[nH]1)/c1ccccc1` the z-score was -0.0218.
`Cn1c2ccccc2c2cnn(CC(=O)O)c(=O)c21` was tested, and the z-score was -0.137.
Compound `Cc1cc(N/N=C/c2ccc(O)cc2O)nc(-n2nc(C)cc2C)n1` has a z-score of -0.153.
For `Cc1ccc(S(=O)(=O)Nc2nc3ccc(S(=O)(=O)N4CCCC4)cc3s2)cc1`, the z-score was -0.669.
`O=C(NC1CCCCC1)NC1(C(=O)N2CCN3CCCC3C2)CCCCC1` (configuration not stated) was tested, and the z-score was -0.0938.
For `CCc1nnc(NS(=O)(=O)c2ccc(N=Cc3c(C)[nH]n(-c4cccc(Cl)c4)c3=O)cc2)s1`, the z-score was -0.666.
`O=C(O)/C=C/C(=O)N1CCN(C(=O)/C=C/C(=O)O)CC1` gave a z-score of -0.184.
For `COc1ccc(C2NC(=S)N(c3ccccc3)C(C)=C2C(=O)Nc2ccccc2)cc1` (configuration not stated), the z-score was 0.141.
`O=C(Oc1ccc2ccc(=O)oc2c1)N1CCOCC1` showed a z-score of -0.494.
Work on `C=CCSc1n[nH]c(-c2ccccc2)n1` yielded a z-score of 0.708.
For `O=C(COC(=O)/C=C/c1cccc(C(F)(F)F)c1)NCc1ccccc1`, the z-score was -0.149.
`OCCNc1ncnc2c1c(-c1ccccc1)c(-c1ccccc1)n2Cc1ccco1` was tested, and the z-score was -0.463.
`Cc1sc2ncnc(SC(C)C(=O)N3c4ccccc4Sc4ccccc43)c2c1C` (configuration not stated) gave a z-score of 2.19.
In the case of `O=C(NC1CC1)c1ccc2c(c1)ncn2C1CCCC1`, the z-score is reported as -0.16.
Work on `CCC(C)c1ccc2oc(-c3ccc(NC(=O)Cn4cnc5c(=O)n(C)c(=O)n(C)c54)cc3)nc2c1` (configuration not stated) yielded a z-score of 1.46.
`CC1CN(c2cc(=O)n(-c3cccc(Br)c3)c(=O)[nH]2)CC(C)O1` (configuration not stated) gave a z-score of -0.415.
Compound `CCS(=O)(=O)c1nc2ccccc2n1CC(=O)N1CCOCC1` has a z-score of 0.0592.
Compound `O=C(Nc1ccccc1C(=O)OCn1nnc2ccccc2c1=O)c1ccco1` has a z-score of -0.216.
With `CC(C)(C)NS(=O)(=O)c1cnc(Cl)c(Cl)c1` the z-score was -0.154.
With `O=C(CC(Nc1ccc(F)cc1)C(=O)O)c1ccccc1` (configuration not stated) the z-score was 0.144.
In the case of `CN(C)CCCNCCCNC(=O)/C(=N\O)c1ccccn1`, the z-score is reported as -0.161.
For `O=C(COC(=O)c1ccccc1C(=O)c1ccccc1)c1ccco1`, the z-score was 0.281.
With `CCCCNC(=O)CNC(=S)N(Cc1cc(OC)c(OC)c(OC)c1)C1CCCC1` the z-score was -0.231.
With `CC(C)Cc1nc2oc3c(NCCCN4CCOCC4)ncnc3c2c2c1CCC2` the z-score was 0.0144.
With `COc1ccc(NC(=O)c2ccc3snnc3c2)cc1` the z-score was -0.112.
`COC(C(=O)NC(C(C)C)C(C)C)c1ccccc1` (configuration not stated) showed a z-score of -0.183.
Compound `COc1ccc(C2C(C(=O)Nc3ccccc3OC)=C(C)Nc3nnnn32)c(OC)c1` (configuration not stated) has a z-score of 0.0984.
`CC(=O)N1CCN(C(=O)Nc2cccc(C(F)(F)F)c2)CC1` gave a z-score of -0.172.
Compound `CCN1CCC(NC(=O)c2cc(OC)c(OC)cc2OC)CC1` has a z-score of 0.0595.
`O=C(Nc1ccccc1C(=O)N/N=C/c1ccc(F)cc1)c1ccccc1Br` showed a z-score of -0.184.
`CCOC(=O)C1C(=O)C=C(c2ccc(Br)cc2)CC1c1ccco1` (configuration not stated) showed a z-score of -0.187.
`O=S(=O)(c1ccc(Cl)c(NC(=S)N/N=C/c2ccc(O)cc2)c1)N1CCOCC1` showed a z-score of -1.78.
